# Laboratory results taken from PubChem BioAssay AID540267 (National Center for Advancing Translational Sciences (NCATS), 2011).
# Hit rate of the full screen: of about 340,000 compounds, about 530 (0.16%) were called active. Inconclusive means that the source gave no clear call. Such entries were picked first, then a sample of the others. No stated cut-off is given here; in the data, active means activity change below about -80%; inconclusive means between about -30% and that limit; inactive means weaker than that.
# Assay: Small Molecules that selectively kill Giardia lamblia: qHTS;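 further: parasites exposed to compound for two days anaerobically before the ATP read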
# Settings: Giardia lamblia trophozoite viability; at 7.66 µM; active compounds read low
# Procedure, shortened: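 Compounds were tested on trophozoites seeded at 100 cells/well and held 48 hrs at 37 deg C anaerobically. An ATP-based luminescent kit measured the remaining live cells.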
# On the % scale 0 is the no-effect control and ±100 the full control effect.
row,Structure (SMILES),activity change
1,COC(=O)c1sc(NC(=O)c2ccc([N+](=O)[O-])o2)c(C#N)c1C,active: -93.1%
2,Cc1ccc(N(Cc2cc3ccc(C)cc3[nH]c2=O)C(=O)c2cccs2)cc1,inactive: 33.7%
3,O=C1C[C@@H](c2ccccc2)Oc2cc(O)cc(O)c21,inconclusive: -34.3% [inhibitor]
4,CCOc1ccc(NC(=O)Cn2nnc(C(=O)NCc3cccs3)c2N)cc1,inactive: 22.4%
5,CNC(=O)CCCCCNS(=O)(=O)c1ccc(C)cc1,inconclusive: -34.3% [inhibitor]
6,CCn1c(SC2CCOC2=O)nnc1-c1ccc(Cl)cc1 (stereo not drawn),inconclusive: -39.7% [inhibitor]
7,CCC(N1CCOC1=O)S(=O)(=O)c1ccc(C)cc1 (stereo not drawn),inconclusive: -30.5% [inhibitor]
8,CCCOc1ccc(C2=NNC(=O)CC2)cc1,inactive: -11.1%
9,COc1ccc(CCN=c2c([N+](=O)[O-])nn(-c3cccc(C)c3)n2O)cc1OC,inconclusive: -76.9% [inhibitor]
10,Cc1cc(C(=O)N2CCN(c3ccc(F)cc3)CC2)on1,inconclusive: -38.9% [inhibitor]
11,COc1cc(NS(=O)(=O)c2ccc(NC(=S)NC(=O)/C=C/c3ccc(OC)c(OC)c3)cc2)ncn1,inactive: 15.2%
12,COc1ccc(C2NC(=O)NC(C)=C2C(=O)OCc2ccc3c(c2)OCO3)cc1OC (stereo not drawn),inconclusive: -30.5% [inhibitor]
13,COc1cc(/C=C/C(=O)OC(C)C(=O)Nc2c(C)n(C)n(-c3ccccc3)c2=O)ccc1O (stereo not drawn),inactive: 8.19%
14,COc1cc(Br)c(CN2C(=O)NC3(CCCCCC3)C2=O)cc1OC,inactive: -11.1%
15,CSCC[C@H](N)C(=O)N1CCC(C(=O)N[C@@H](Cc2c[nH]c3ccccc23)C(=O)O)CC1,inconclusive: -34.4% [inhibitor]
16,S=c1[nH]nc2nnc3ccccc3n12,inactive: -9.72%
17,Cc1ccc(C(CC(=O)O)NC(=O)c2ccc(S(=O)(=O)N3CC(C)OC(C)C3)cc2)cc1 (stereo not drawn),inconclusive: -48% [inhibitor]
18,CCOC(=O)c1ccc(NC(=O)COc2cc(=O)n(CC)c3ccccc23)cc1,inconclusive: -31.7% [inhibitor]
19,O=C(CSc1nnc(NC(=O)c2ccccc2)s1)NCC1CCCO1 (stereo not drawn),inconclusive: -42.9% [inhibitor]
20,COc1ccc(C(=O)NNC(=S)NC(=O)c2ccccc2)cc1,inconclusive: -38.3% [inhibitor]
21,Cc1ccc(-c2nc3ccccc3[nH]2)cc1N,inconclusive: -36.8% [inhibitor]
22,CCCCCn1c(=O)[nH]c2cc(C(=O)N3CCN(c4ccccc4F)CC3)ccc2c1=O,inconclusive: -37.3% [inhibitor]
23,CC(C)(C)c1ccc(C(=O)Cn2nc(C(=O)O)c3ccccc3c2=O)cc1,inactive: -7.66%
24,O=C(Nc1ccncc1)c1ccccc1F,inconclusive: -33.1% [inhibitor]
25,COc1ccccc1NS(=O)(=O)c1cccc(NC(=O)CCNC(=O)c2ccccc2OC)c1,inconclusive: -33.3% [inhibitor]
26,CC1CCN(CC(CS(=O)(=O)c2ccc([N+](=O)[O-])cc2)N2CCC(C)CC2)CC1 (stereo not drawn),inactive: -21.8%

row,Structure (SMILES),activity change
1,NC(=O)C1CCN(Cc2nc3cc(Cl)ccc3c(=O)[nH]2)CC1,inactive: 25.1%
2,CCCCc1cc(=O)oc2cc(C)cc(OC(C)C(=O)NCc3ccccn3)c12 (stereo not drawn),inconclusive: -31% [inhibitor]
3,O=C(N/N=C/c1ccc([N+](=O)[O-])o1)c1cn2ccc3ccccc3c2n1,active: -95.3%
4,CC[C@H](C)[C@@H](C(=O)N1CCNCC1)n1cc([C@@H](N)CO)nn1,inactive: 3.57%
5,O=C(NCc1ccccn1)c1cc(-c2ccc(Cl)cc2)oc1C(F)(F)F,inactive: 30%
6,COc1ccc(CCNC(=O)COc2ccc(C)nc2[N+](=O)[O-])cc1,inconclusive: -41.7% [inhibitor]
7,O=C(O)c1cc(/C=C/c2ccc(N3CCOCC3)cc2)nc2ccccc12,inconclusive: -70.2% [inhibitor]
8,CC1CCN(CC(=O)Nc2ccc(C(=O)N3CCCCC3)cc2)CC1,inactive: -10.1%
9,Cc1ccc(C(=O)O/N=C/c2ccc(N(C)C)cc2)cc1,inconclusive: -35.9% [inhibitor]
10,CC(C)(CNC(=O)c1ccc(S(=O)(=O)Nc2cccc(C(F)(F)F)c2)cc1)N1CCOCC1,inconclusive: -32.8% [inhibitor]
11,COc1ccc(-n2nnnc2-c2ccccc2)cc1,inactive: -3.57%
12,Fc1cc2nc(-c3ccncc3)[nH]c2cc1F,inconclusive: -32.5% [inhibitor]
13,O=C(O)CC/C(=N\Nc1ccc(Cl)cc1)c1cccs1,inconclusive: -40.2% [inhibitor]
14,Cc1cc2nc(-c3ccc(SCC(=O)N4CCN(C(=O)c5ccco5)CC4)nc3)[nH]c2cc1C,inconclusive: -36.3% [inhibitor]
15,OC(Cn1cncn1)(Cn1cncn1)c1ccc(F)cc1F,inactive: 3.44%
16,CS(=O)(=O)N1CCN(c2ccc([N+](=O)[O-])c3cccnc23)CC1,active: -82%
17,O=[N+]([O-])c1ccc2[nH]c(=S)[nH]c2c1,inactive: -7.18%
18,COc1cc(NC(=O)C2CCCN2S(=O)(=O)c2ccc3c(c2)CCC(=O)N3)cc(OC)c1 (stereo not drawn),inconclusive: -32% [inhibitor]
19,c1csc(-c2nnc(-c3ccc(N4CCOCC4)cc3)o2)c1,inconclusive: -39.7% [inhibitor]
20,CN(C)c1ccc(C(=O)c2ccc(N(C)C)c3ccccc23)cc1,inactive: -8.93%
21,O=C(O)C1Oc2cc3ccccc3cc2O1,inconclusive: -30% [inhibitor]
22,Cc1cc(C)c(C)c(S(=O)(=O)Nc2ccc3cn[nH]c3c2)c1C,inconclusive: -33.2% [inhibitor]
23,Cc1ccc(NC(=O)Cn2c(O)c(N=NC(N)=S)c3ccccc32)cc1,inactive: -25.4%
24,Nc1ccc(Oc2cc(N)cc(Oc3ccccc3)c2)cc1,inconclusive: -37.3% [inhibitor]
25,O=C(N/N=C/c1ccoc1)c1ccc(Br)cc1,inactive: -23.6%
26,Oc1ccccc1/C=N/Nc1ccnc(SCc2ccccc2)n1,inactive: 5.97%

row,Structure (SMILES),activity change
1,Cc1cccc(-c2nc3cc(NC(=O)C4CCCO4)ccc3o2)c1 (stereo not drawn),inconclusive: -38.9% [inhibitor]
2,Cc1ccc(S(=O)(=O)NC2CC(=O)N(c3ccc4c(c3)OCCO4)C2)cc1 (stereo not drawn),inconclusive: -31.3% [inhibitor]
3,CC(C)(C)c1ccc(C(=O)Nc2nnc(SCC(=O)NCC3CCCO3)s2)cc1 (stereo not drawn),active: -92.6%
4,COc1ccc(NC(=O)C2CCCN(S(C)(=O)=O)C2)cc1 (stereo not drawn),inconclusive: -34.1% [inhibitor]
5,O=C(COc1cccnc1[N+](=O)[O-])NCc1cccs1,inconclusive: -60.5% [inhibitor]
6,C=CCN=C1S/C(=C/c2cccc([N+](=O)[O-])c2)C(=O)N1CC=C,inactive: -16.5%
7,Cc1cccc(C(=O)NNC(=O)c2c(O)c3ccccc3n(C)c2=O)c1,inactive: 7.13%
8,COc1cc(C(c2c(C)[nH][nH]c2=O)c2c(C)[nH][nH]c2=O)cc(Br)c1OC,inconclusive: -42% [inhibitor]
9,Cc1ccccc1NC(=O)Cn1c(NCC(C)O)nc2ccccc21 (stereo not drawn),inconclusive: -30.3% [inhibitor]
10,CC(C)c1nc(N2CCN(C(=O)c3ccco3)CC2)c(C#N)c2c1COC(C)(C)C2,inactive: -2.16%
11,CCc1nnc(NC(=O)CSc2nnc(C)c(=O)n2N)s1,inconclusive: -35.8% [inhibitor]
12,O=C(Nc1cc(NC(=O)c2ccccc2F)ccc1Cl)c1ccccc1,inconclusive: -33.4% [inhibitor]
13,Cc1ccc(S(=O)(=O)N2[C@@H](c3cccc(Cl)c3)C(C(=O)O)=CC[C@H]2c2ccc(Cl)cc2)cc1,inconclusive: -39% [inhibitor]
14,CCCc1nc2c(=O)n(C)c(=O)nc-2n(C)n1,inconclusive: -78.8% [inhibitor]
15,CC(OC(=O)Cc1ccsc1)C(=O)Nc1ccc(Cl)cn1 (stereo not drawn),inconclusive: -31.2% [inhibitor]
16,Cc1ccc(C(=O)CCS(=O)(=O)c2ccc(Cl)cc2)cc1,inactive: -4.67%
17,O=C(Nc1ccc(Br)c(C(F)(F)F)c1)c1ccccc1,inconclusive: -33% [inhibitor]
18,O=c1[nH]c(CN2CCN(S(=O)(=O)c3ccc(Cl)cc3)CC2)nc2cc(Cl)ccc12,inactive: -6.98%
19,COc1cccc(NC(=O)CN2C(=O)NC(CCc3ccccc3)C2=O)c1 (stereo not drawn),inconclusive: -34.4% [inhibitor]
20,COc1ccccc1C(=O)Nc1ccc(N2CCN(S(C)(=O)=O)CC2)cc1,inactive: -25%
21,CCCCS(=O)(=O)N1CCCC(C(=O)Oc2ccccc2)C1 (stereo not drawn),inconclusive: -30.9% [inhibitor]
22,O=C(NCc1ccco1)C12CN(Cc3ccccc3)CC1C(c1cccc([N+](=O)[O-])c1)=NO2 (stereo not drawn),inconclusive: -31.6% [inhibitor]
23,Cc1ccc(NS(=O)(=O)c2c(C(=O)N3CCCCCC3)c(C)n(C)c2C)c(C)c1,inconclusive: -34% [inhibitor]
24,O=[N+]([O-])c1cccc(N=Nc2ccc(O)cc2O)c1,inconclusive: -44.6% [inhibitor]
25,Cc1c(-c2ccccc2)oc2c(C(=O)OCC(=O)Nc3cccc(F)c3)cccc2c1=O,inconclusive: -33.9% [inhibitor]
26,O=C(Cc1cccc(NC(=O)C2CCN(C(=O)C3CCCCC3)CC2)c1)Nc1cccc(C(=O)N2CCCCC2)c1,inconclusive: -36.5% [inhibitor]
